Laboratory results taken from publication PMC4336329 (PLoS ONE, 2015).
The whole screen tested about 310,000 compounds, of which about 14,000 (4.5%) showed an effect of 50% or more. Effects have a minus sign here. The list shows a part of the results.

These compounds were tested against human ether-à-go-go-related gene (hERG) potassium channel (human, UniProt Q12809) (assay: primary screen, population patch clamp on CHO cells stably expressing hERG).
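Further: peak tail current of the secondary pulse compared with the same well before compound.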

human ether-à-go-go-related gene (hERG) potassium channel, sequence (Q12809 whole entry, looked up): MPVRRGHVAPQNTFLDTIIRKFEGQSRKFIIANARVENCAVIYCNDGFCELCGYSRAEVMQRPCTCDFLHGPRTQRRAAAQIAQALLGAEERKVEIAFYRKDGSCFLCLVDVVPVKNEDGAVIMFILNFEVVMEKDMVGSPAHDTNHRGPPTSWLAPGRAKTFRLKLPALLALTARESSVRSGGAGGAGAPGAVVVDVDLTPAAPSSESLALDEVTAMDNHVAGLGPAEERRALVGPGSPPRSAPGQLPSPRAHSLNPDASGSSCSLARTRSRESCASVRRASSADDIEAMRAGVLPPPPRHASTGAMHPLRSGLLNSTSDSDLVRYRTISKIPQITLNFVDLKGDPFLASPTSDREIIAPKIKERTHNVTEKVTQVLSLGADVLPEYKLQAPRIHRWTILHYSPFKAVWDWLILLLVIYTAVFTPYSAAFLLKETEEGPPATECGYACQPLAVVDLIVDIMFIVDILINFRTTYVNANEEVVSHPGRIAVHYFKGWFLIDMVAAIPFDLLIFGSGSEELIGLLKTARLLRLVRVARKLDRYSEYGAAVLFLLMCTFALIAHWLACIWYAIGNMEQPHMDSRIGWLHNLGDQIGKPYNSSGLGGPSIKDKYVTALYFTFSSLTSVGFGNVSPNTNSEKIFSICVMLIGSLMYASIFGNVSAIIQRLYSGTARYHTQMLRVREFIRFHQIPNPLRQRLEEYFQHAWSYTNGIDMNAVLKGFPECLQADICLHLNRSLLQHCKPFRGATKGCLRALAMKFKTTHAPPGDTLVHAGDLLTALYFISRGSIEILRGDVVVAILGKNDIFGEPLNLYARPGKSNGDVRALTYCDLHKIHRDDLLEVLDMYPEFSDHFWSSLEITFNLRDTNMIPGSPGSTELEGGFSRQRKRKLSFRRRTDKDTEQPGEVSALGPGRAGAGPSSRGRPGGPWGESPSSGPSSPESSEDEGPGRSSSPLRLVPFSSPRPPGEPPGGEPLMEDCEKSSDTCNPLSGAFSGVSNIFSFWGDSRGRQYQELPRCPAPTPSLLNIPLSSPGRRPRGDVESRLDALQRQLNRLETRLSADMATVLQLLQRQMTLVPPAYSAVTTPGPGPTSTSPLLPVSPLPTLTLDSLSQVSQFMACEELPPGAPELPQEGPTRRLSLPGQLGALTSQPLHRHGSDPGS

Row | Compound | hERG current change (%, negative = inhibition) at 10uM
1 | CC(NC(=O)c1ccc(S(=O)(=O)NCc2ccco2)cc1)c1ccc(F)cc1 (stereo not shown) | 1.15%
2 | O=C(COC(=O)CCCNC(=O)c1ccc(Cl)cc1)Nc1cc(Cl)c(Cl)cc1Cl | 12.7%
3 | COc1ccc(C(=O)NC(C)c2ccc(-n3ccnc3)cc2)c(OC)c1 (stereo not shown) | -53.8%
4 | O=C1N(c2ccccc2C(F)(F)F)O[C@]1(c1ccccc1)C1CCCC1 | 4.39%
5 | CCC(NC(=O)c1ccccc1NC(=O)C(C)(C)C)C(=O)N1CCCC1 (stereo not shown) | 9.31%
6 | CCOC(=O)Cn1c(=O)c2c(nc3n2CCCCN3c2ccc(OCC)cc2)n(C)c1=O | -41.4%
7 | COc1ccc(OC)c(NC(=O)C(=O)N/N=C(\C)CC(=O)Nc2ccc(Cl)cn2)c1 | -1.6%
8 | COc1cc(/C=N/Nc2nnc3c(n2)[nH]c2ccccc23)ccc1O | 4.59%
9 | Fc1ccc(-c2cc3nc4c(c(N5CCOCC5)n3n2)CCCC4)cc1 | -1.71%
10 | Cc1ccc(-c2nn(Cc3ccccc3)cc2C=O)cc1C | -13.9%
11 | CCN1CCN(C(C(=O)NC2CCCC2)c2ccc(Cl)cc2)CC1 (stereo not shown) | -14.8%
12 | O=C(CNC(=O)c1ccco1)NCC(=O)OCc1ccc(C(=O)Oc2ccc(Cl)cc2)cc1 | 9.73%
13 | CCn1c(SCC(=O)Nc2ccccc2OC)nc(O)cc1=O | 7.14%
14 | COc1ccc(-n2cc(CNCCCn3ccnc3)c(-c3ccccc3Cl)n2)cc1 | -44.9%
15 | Cn1cnc(C(=O)N2CCN(c3ccccc3)CC2)c1C(=O)N1CCN(c2ccccc2)CC1 | 2.1%
16 | CN(C)N1C(N)=C(C#N)C(c2ccc3c(c2)OCO3)C2=C1CCCC2=O (stereo not shown) | -18.7%
17 | Cc1ccc(-n2nnnc2-c2cnc(-c3cccnc3)nc2C(F)(F)F)cc1 | -11.7%
18 | Cc1cccc(C(=O)OC2CCOC2=O)c1C (stereo not shown) | 7.35%
19 | O=C(O)/C=C/C(=O)c1ccc2c(c1)CCc1ccccc1-2 | -4.88%
20 | Cc1cnc(C(=O)OC(C(=O)c2ccccc2)c2ccccc2)cn1 (stereo not shown) | 11.1%
21 | COc1ccc(N=c2ssnc2Cl)cc1 | 24.1%
22 | COc1ccc([C@H]2CC(=O)C=C(c3cc(C=O)ccc3OC)C2)cc1OC | -40.6%

Row | Compound | hERG current change (%, negative = inhibition) at 10uM
23 | COC(=O)CSC1=C(C#N)C(c2ccc(C(C)C)cc2)CC(=O)N1 (stereo not shown) | 4.22%
24 | CN1C2CCC1/C(=C\c1ccccc1F)C(=O)/C2=C/c1ccccc1F | -12.4%
25 | Cc1ccc(OCCOc2ccc(Br)cc2)c([N+](=O)[O-])n1 | -6.68%
26 | O=[N+]([O-])c1ccc(N2CCCCC2)c(Cl)c1N1CCCCC1 | 3.77%
27 | Cc1ccc(-c2onc(C)c2C)cc1S(=O)(=O)N1CC(C)Oc2ccccc21 (stereo not shown) | 10%
28 | O=c1ccc(-c2ccc(S(=O)(=O)N3CCN(c4ccccc4)CC3)o2)n[nH]1 | 11.2%
29 | CCC1=NN(C(=O)Cc2ccc([N+](=O)[O-])cc2)C(O)(C(C)(C)C)C1 (stereo not shown) | -39.6%
30 | COc1ccc2sc(N(CCCN(C)C)C(=O)c3ccc(C(=O)c4ccccc4)cc3)nc2c1.Cl | -77.3%
31 | CCN(CC)S(=O)(=O)c1cc(NC(=O)C(CC(C)C)NC(N)=O)ccc1C (stereo not shown) | 6.42%
32 | Cc1cc(C)nc(NC2=NCC(=O)N2c2ccc(Cl)cc2)n1 | -5.04%
33 | Cc1ccc2nc(-c3ccc(NC(=O)COC(=O)c4ccc(=O)[nH]c4)cc3)sc2c1 | 4.67%
34 | CCOP(=O)(OCC)C(NC(=O)C(Cl)Cl)C(Cl)(Cl)Cl (stereo not shown) | 14.8%
35 | COc1ccc(NC(=O)COC(=O)c2ccc(F)cc2F)cc1 | -9.29%
36 | CCOC(=O)C1CCN(CC(C)(C)NS(=O)(=O)c2ccc(Cl)cc2)CC1 | -1.75%
37 | O=C(CSc1nnnn1-c1ccccc1)NCc1ccco1 | -0.902%
38 | CCCN1C(=O)/C(=C/C=C2\N(CC)c3ccccc3C2(C)C)SC1=S | 8.96%
39 | CC(C)OC(=O)CSc1nnc2n1C(C)(C)Cc1ccccc1-2 | -2.65%
40 | CC(C)[C@H](NC(=O)c1ccccc1)C(=O)OCC(=O)N1CC(=O)Nc2ccccc21 | -1.48%
41 | N=c1c2c(ncn1CCCO)Oc1cc(O)ccc1C2c1ccccc1 (stereo not shown) | -33.7%
42 | Cc1ccc2nc(N3CCN(C=O)CC3)nc(-c3ccccc3)c2c1 | -56%
43 | Cc1cc(C(=O)NCC(=O)OCC(=O)N(C2CCCCC2)C2CCCCC2)ccc1[N+](=O)[O-] | 9.99%
